In paper PMC6919601, “Identification of Plasmodium dipeptidyl aminopeptidase allosteric inhibitors by high throughput screening” (PLoS ONE, 2019):
Out of some 110,000 compounds screened, about 230 (0.21%) showed an effect of 50% or more. The list shows a part of the results.

The molecules below were run against DPAP1 (Plasmodium falciparum, UniProt Q8IIJ9) (assay: primary screen, percent inhibition; read by cleavage of a fluorogenic dipeptide substrate; higher = more effect of the substance).
Parameters: species or system P. falciparum D10 trophozoite lysates; single well
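Also: 30 min substrate incubation versus DMSO and 10 µM JCP410 controls.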

Sequence of DPAP1 (Q8IIJ9 whole entry, looked up): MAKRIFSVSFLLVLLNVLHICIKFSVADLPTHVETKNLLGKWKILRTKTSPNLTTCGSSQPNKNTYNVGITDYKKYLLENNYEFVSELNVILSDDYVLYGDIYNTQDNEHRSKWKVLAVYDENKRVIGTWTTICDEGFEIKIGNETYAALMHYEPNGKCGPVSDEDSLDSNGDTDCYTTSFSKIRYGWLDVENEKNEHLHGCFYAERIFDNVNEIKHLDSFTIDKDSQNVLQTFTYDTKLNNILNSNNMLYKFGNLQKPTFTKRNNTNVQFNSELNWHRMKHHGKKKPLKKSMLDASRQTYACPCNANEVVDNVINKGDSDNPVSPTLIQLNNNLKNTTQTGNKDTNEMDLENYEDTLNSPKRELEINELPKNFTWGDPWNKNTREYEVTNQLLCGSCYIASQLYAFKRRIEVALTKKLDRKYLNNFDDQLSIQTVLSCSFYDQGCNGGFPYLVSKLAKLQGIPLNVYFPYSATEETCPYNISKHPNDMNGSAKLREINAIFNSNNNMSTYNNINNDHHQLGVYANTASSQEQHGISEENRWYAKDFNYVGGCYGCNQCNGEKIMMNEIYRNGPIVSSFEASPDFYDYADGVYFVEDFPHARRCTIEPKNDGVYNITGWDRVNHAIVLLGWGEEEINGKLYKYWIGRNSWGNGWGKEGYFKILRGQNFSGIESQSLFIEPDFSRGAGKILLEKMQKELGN

Compound | % Inhibition @ 10 uM
CC1=C(C(=O)Nc2cc(C)ccn2)C(c2ccc(C)cc2)C2=C(O)CC(C)(C)CC2=N1 (centres unmarked) | 4%
N=C1/C(=C\c2cccn2-c2ccc3ccccc3c2)C(=O)N=C2SC=NN12 | -0.00718%
Nc1nc(S)nc2nc(-c3ccccc3)c(-c3ccccc3)nc12 | -2.8%
COc1ccc(CNC(=O)CCCc2nnc3n(C)c(=O)c4sccc4n23)cc1 | -6.87%
COc1ccc(C(=O)Nc2ccc(S(=O)(=O)Nc3nc(C)cc(C)n3)cc2)c(OC)c1 | -0.239%
Cc1ccc(C(=O)C2=C(O)C(=O)N(CCCn3ccnc3)C2c2cccc(Br)c2)cc1 (centres unmarked) | 0.583%
CCCCN(CC)C(=O)c1cnn(-c2ccccc2Cl)c1NC(C)=O | 0.583%
COc1cc(NC(=O)C(C)Oc2ccccc2)c(C(=O)O)cc1OC (centres unmarked) | 1.72%
O=C(O)c1ccccc1N1C(=O)C2C3C=CC(C3)C2C1=O (centres unmarked) | 0.937%
CN1C(=O)/C(=C\c2ccccc2OCC#N)S/C1=N/c1ccccc1 | -6.49%
N#Cc1nc(COc2cccc(Cl)c2)oc1N1CCN(c2ccccc2)CC1 | 0.658%
COc1ccc2nc(NC(=O)Nc3cccc4ccccc34)sc2c1 | -1.92%
Cc1ccc(-c2nc(NC(=O)C(C(C)C)N3C(=O)c4ccccc4C3=O)sc2C)cc1 (centres unmarked) | -2.87%
O=C(/C(=C/c1c[nH]c2ccccc12)n1cncn1)c1ccc(Cl)cc1Cl | 0.00706%
Cc1nn(C)cc1CNC(=O)NC1CCCCC1 | -1.36%
COc1ccccc1OCCOc1c(OC)cc(/C=C2/C(=N)N3OC(C)=CC3=NC2=O)cc1OC | 2%
CN1CCN(Cc2ccc([N+](=O)[O-])cc2)CC1 | 1.55%
CCOC(=O)C1=CN(C)C=C(C(=O)OCC)C1c1ccc(C(F)(F)F)cc1 | 4.99%
Cc1ccc2c(c1)c1c(n2C)C(=O)CCC1 | 1.7%
Cc1ccc(C)c(C2C(C#N)=C(N)Oc3c2oc(CO)cc3=O)c1 (centres unmarked) | -2.77%
O=C(Nc1nc(-c2ccc(F)cc2)cs1)NC12CC3CC(CC(C3)C1)C2 | -3.77%
Cc1nnc2c(N3CCN(C(=O)c4ccco4)CC3)nc3ccccc3n12 | 1.23%
Cc1ccc(CC23CN4CCN(CC(C4)C2=O)C3)c(C)c1 | -1.82%
Oc1nnnn1-c1ccc(Cl)cc1 | -5.85%
C=CCNC(=O)CSc1nc(O)c2c(C)c(C)sc2n1 | -1.08%
COc1cc(C(=O)Nc2nc3c(s2)CCc2ccccc2-3)cc(OC)c1OC | 0.997%

Compound | % Inhibition @ 10 uM
COc1ccc(-c2cc(C(F)(F)F)nc(SCC(=O)NCC3CCCO3)n2)cc1 (centres unmarked) | -0.958%
COc1ccc(C2C(=O)N(CCc3ccccc3)CC(=O)N2Cc2ccc(Cl)cc2)cc1 (centres unmarked) | 4.17%
CCOc1ccc(N2C(=O)CC(N3CC(C)OC(C)C3)C2=O)cc1 (centres unmarked) | 5.39%
Cc1ccccc1C(=O)N1CCN(C(c2ccccc2)c2ccccc2)CC1 | 4.38%
COc1cc2ncc(S(=O)(=O)c3ccccc3)c(N3CCC4(CC3)OCCO4)c2cc1OC | -1.85%
Cc1nc(N2CCN(c3ccccn3)CC2)c2c(C)c(C(=O)Nc3ccc(Cl)cn3)sc2n1 | -3.21%
Cc1cccn2c(=O)c3cc(C#N)c(=O)n(Cc4ccccc4Cl)c3nc12 | -5.92%
O=C(O)C1C2C=CC(O2)C1C(=O)Nc1cccc(Br)c1 (centres unmarked) | 2.36%
CC(=O)C(C)n1nnc2sc(-c3ccccc3)cc2c1=O (centres unmarked) | 4%
CCOC(=O)N1CCN(CC(O)COCC2COc3ccccc3O2)CC1 (centres unmarked) | 9.33%
CC1CCCN(c2c(-c3ccccc3)c(=O)c2=O)C1 (centres unmarked) | 2.51%
COc1ccc(OC)c(N(CC(=O)NC(C)(C)C)S(=O)(=O)c2ccc(C)cc2)c1 | -1.57%
COc1ccc(-c2csc3ncn(Cc4ccc(C)cc4)c(=O)c23)cc1OC | -3.92%
O=C(c1cccnc1S)n1ccnc1 | 2.05%
COc1ccc(-c2noc(C(c3ccccc3)c3ccccc3)n2)cc1 | 4.18%
CC(C)c1ccc2c(c1)[C@@H]1C=CC[C@@H]1[C@H](c1ccc(S(=O)(=O)N3CCOCC3)cc1)N2 | -0.865%
CCOC(=O)CC1(c2ccc(Cl)cc2)C(=O)c2ccccc2C1=O | -9.97%
CCOc1ccc(/C=C/c2nc(C#N)c(NC)o2)cc1 | -2.57%
CC1(C)Cc2nc3sc(C(=O)NCCO)c(N)c3cc2CO1 | 3.53%
O=C(Nc1ccccc1-n1cccc1)C1CC1 | 1.07%
Cc1cc(C)c(S(=O)(=O)Nc2ccc(Cl)cc2Cl)c(C)c1 | 3.47%
CCNC(=O)c1ccccc1-c1ccccc1C(=O)O | -8.03%
CCOc1ccc(N(CC(=O)Nc2ccc(F)cc2)S(C)(=O)=O)cc1 | 17.9%
CCNC(=S)N(Cc1ccccc1)Cc1ccccc1Cl | -2.51%
O=C(CCN1C(=O)c2cccc3cccc(c23)C1=O)N1CCN(Cc2ccc3c(c2)OCO3)CC1 | 0.121%
CCCCNc1ncnc2c1[nH]c1ccc(OC)cc12 | -5.28%

Compound | % Inhibition @ 10 uM
O=C1OC(c2ccccc2)OC(=O)C1=Cc1ccc(OCc2cccc(C(=O)O)c2)cc1 (centres unmarked) | -0.169%
CC(C)(C)c1cc(CN2CCN(c3ccc(Cl)cc3)CC2)cc(C(C)(C)C)c1O | -0.828%
CCOc1cc(C(c2c(O)n[nH]c2C)c2c(O)n[nH]c2C)cc(Cl)c1O | 0.561%
CN(CC(=O)NCc1ccco1)S(=O)(=O)c1ccc(-c2ccc(O)nn2)s1 | -3.84%
O=C1NC(=O)/C(=C\c2ccc(-c3ccc(Br)cc3)o2)S1 | -2.19%
Cc1ccc(-n2c(SCC(=O)NCCC3=CCCCC3)nc3nnc(C)c-3c2N)cc1Cl | 1.2%
NS(=O)(=O)c1ccc(NC(=O)c2ccco2)cc1 | -0.192%
Nc1nc2sc3c(c2cc1C(=O)N1CCOCC1)CCCC3 | 4.26%
CN(C)C(=O)C(NC(=O)c1ccc([N+](=O)[O-])cc1)C12CC3CC(CC(C3)C1)C2 (centres unmarked) | 0.937%
CCN1CCC(N2CCN(CC)CC2)CC1 | 3.48%
CC1CCc2c(sc(NC(=O)CCC(=O)O)c2C(=O)Nc2ccc(Cl)cc2)C1 (centres unmarked) | 20.8%
Cc1ccc(SCC(=O)Nc2ccc(C(=O)NC(C)(C)C)cc2)cc1 | 1.89%
Cc1nc2ccccc2cc1C(=O)Nc1cccc(C(F)(F)F)c1 | -1.61%
OCCN(CCO)Cc1csc2ccccc12 | 0.843%
O=S(=O)(NCc1csc(-c2ccccc2)n1)c1ccc(Oc2ccccc2)cc1 | -0.72%
Cc1cccc(OCc2nn3c(-c4ccccc4Br)nnc3s2)c1 | 2.89%
CCN(CC)c1ccc(C2SC(NC(C)=O)=NN2C(C)=O)cc1 (centres unmarked) | -3.63%
COc1cc(OC)c(CN2CCC(Cc3ccccc3)CC2)cc1Br | 1.38%
O=C(CCCn1nc(-c2ccccc2)c2ccccc21)NCc1cccnc1 | -3.08%
CC(=O)Nc1ccc(NC(=O)CSCc2ccccc2Cl)cc1 | 0.343%
CC12CN(C(=O)Cc3ccccc3)CC(C)(CN(C(=O)Cc3ccccc3)C1)C2=O | 3.94%
CC(=C(C#N)C#N)c1ccc2c(c1)OCO2 | -3.98%
CC(C)(C)c1c(N2CCCCC2)c(=O)c1=O | -3.04%
O=C(O)C(Cc1ccc(Cl)cc1)NS(=O)(=O)c1ccccc1 (centres unmarked) | 12.3%
COc1ccc(Br)cc1C1=N/C(=C\c2cccc3ccccc23)C(=O)O1 | 12.7%
O=C(NC1CC1)c1nc(-c2ccc(C(F)(F)F)cc2)no1 | 3.68%

Compound | % Inhibition @ 10 uM
Cc1ccc(-c2csc(/C(C#N)=C/c3ccc(Cl)cc3Cl)n2)c(C)c1 | -3.26%
CCOC(=O)C1=C(CSc2nc3ccccc3[nH]2)NC(=O)NC1c1cc(C)ccc1C (centres unmarked) | -4.49%
O=S(=O)(c1ccc(Cl)cc1)N1CCN(Cc2ccccn2)CC1 | -3.5%
Cc1ccc2c(c1Br)C(O)(CC(=O)c1ccc3c(c1)OCO3)C(=O)N2 (centres unmarked) | -0.519%
CCCNC(=O)c1cc2oc3ccccc3c2n1C | 6.06%
COc1ccc(C2=NN(CC(=O)NC3CC3)C(=O)CC2)cc1 | 4.81%
CCc1cc(C(=O)COc2ccccc2)c(O)c(CN2CCCC2C(=O)O)c1O (centres unmarked) | 3.06%
COc1ccc(Br)cc1CN1CCN(Cc2ccccc2)CC1 | 2.27%
CCOc1ccc(NC(=O)COc2ccc3oc4c(c3c2)CCCC4)cc1 | 0.472%
C=CCNc1nc(Cl)nc(NCC(=O)OCC)n1 | 3%
CCCOc1ccc(NC(=O)c2ccc([N+](=O)[O-])cc2)cc1 | 0.00178%
NC(=S)CN1CCCC1=O | -1.26%
O=C(COc1ccc(Br)cc1)N1CCOCC1 | 1.64%
CCCNC(=O)Cn1ncc2c3ccccc3n(C)c2c1=O | -9.31%
CCc1c(O)c(I)c(=O)n(-c2ccccc2)c1-c1ccccc1 | 2.36%
CCN(CC)C(=O)NCc1noc2ccc(C)cc12 | 0.257%
O=C(NCCc1ccccc1)c1ccc(Br)cc1 | -1.48%
COc1cc2c3c(c1)C(C)=CC(C)(C)N3C(=O)C2=O | -2.88%
CCOc1ccc(/C=C/c2nc(=O)c3ccccc3o2)cc1 | 8.18%
NC(=O)c1c(NC(=O)Cc2ccc(F)cc2)sc2c1CCCC2 | 3.53%
Cc1[nH]nc(O)c1C(c1cccc(OCc2ccccc2)c1)c1c(O)n[nH]c1C | -1.06%
CCCCC(=O)c1c(C)cc(C)nc1S | 46.3%
CCCN1CCN(C(=O)Cn2ncc3c(C)n(Cc4ccccc4F)c(C)c3c2=O)CC1 | -5.81%
